From PMC4336329 (PLoS ONE, 2015)
Hit rate of the full screen: of about 310,000 compounds, about 14,000 (4.5%) showed an effect of 50% or more. The effect is printed as a negative number. This is one part of the list.

biological target: human ether-à-go-go-related gene (hERG) potassium channel (human, UniProt Q12809); assay: primary screen, population patch clamp on CHO cells stably expressing hERG
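Further: peak tail current of the secondary pulse compared with the same well before compound.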

Chain of human ether-à-go-go-related gene (hERG) potassium channel (Q12809 whole entry, looked up): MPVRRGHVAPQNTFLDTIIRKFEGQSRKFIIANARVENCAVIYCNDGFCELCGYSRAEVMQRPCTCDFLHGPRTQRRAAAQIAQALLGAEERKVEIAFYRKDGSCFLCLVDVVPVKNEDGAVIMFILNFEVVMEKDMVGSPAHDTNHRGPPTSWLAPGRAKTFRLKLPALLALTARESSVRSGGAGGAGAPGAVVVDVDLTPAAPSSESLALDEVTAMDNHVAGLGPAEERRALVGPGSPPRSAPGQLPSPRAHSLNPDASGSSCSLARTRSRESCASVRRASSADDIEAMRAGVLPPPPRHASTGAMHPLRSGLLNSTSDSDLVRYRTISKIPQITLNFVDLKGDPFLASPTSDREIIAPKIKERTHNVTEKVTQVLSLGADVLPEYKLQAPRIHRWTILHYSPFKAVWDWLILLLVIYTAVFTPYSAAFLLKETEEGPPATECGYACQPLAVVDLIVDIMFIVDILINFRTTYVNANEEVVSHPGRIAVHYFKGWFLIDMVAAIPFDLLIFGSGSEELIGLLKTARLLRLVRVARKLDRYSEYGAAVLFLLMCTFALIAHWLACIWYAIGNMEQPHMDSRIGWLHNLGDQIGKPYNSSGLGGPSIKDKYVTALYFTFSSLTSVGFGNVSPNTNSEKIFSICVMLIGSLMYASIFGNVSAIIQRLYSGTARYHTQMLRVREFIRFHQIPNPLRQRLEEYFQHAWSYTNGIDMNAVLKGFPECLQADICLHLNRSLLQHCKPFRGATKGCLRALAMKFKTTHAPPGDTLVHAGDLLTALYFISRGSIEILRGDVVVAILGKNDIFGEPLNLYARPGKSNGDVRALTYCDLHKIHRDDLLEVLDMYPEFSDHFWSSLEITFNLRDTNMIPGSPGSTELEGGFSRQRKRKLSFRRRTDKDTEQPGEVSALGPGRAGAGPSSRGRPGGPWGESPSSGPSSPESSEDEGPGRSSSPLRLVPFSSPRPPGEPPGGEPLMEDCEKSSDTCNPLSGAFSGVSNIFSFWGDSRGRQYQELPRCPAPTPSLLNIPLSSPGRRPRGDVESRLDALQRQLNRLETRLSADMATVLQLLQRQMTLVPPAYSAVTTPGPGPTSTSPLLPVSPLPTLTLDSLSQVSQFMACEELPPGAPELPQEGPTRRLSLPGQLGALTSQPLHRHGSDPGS

SMILES | hERG current change (%, negative = inhibition) at 10uM [%]
Cc1cccc2cc(-c3nc4c(C)cccn4c3NCc3ccco3)c(=O)[nH]c12 | -11.5
O=C(NC1CCN(Cc2ccccc2)CC1)c1ccc(Cn2c(=S)[nH]c3ccc(N4CCOCC4)cc3c2=O)cc1 | 11.3
CC(C)CCC(CCN1CCCC1)c1ccc2c(c1)OCO2.O=C(O)C(=O)O (centres unmarked) | -78.1
O=C(Nc1ccccc1)/C(=C/c1ccc([N+](=O)[O-])cc1)NC(=O)c1ccccc1 | 8.2
C[C@@H]1CCC(=O)N(C[C@@H](C)CSc2ccccc2)CC1 | -18.2
CC(=O)c1ccc2c(c1)C1C=CCC1C(c1ccncc1)N2 (centres unmarked) | -21
CC(C(=O)Nc1cccc([N+](=O)[O-])c1)n1nnc2ccccc21 (centres unmarked) | -33.5
COc1cccc(OC)c1C(=O)N1CCN(Cc2ccccc2C(F)(F)F)CC1.O=C(O)C(=O)O | 6.44
O=C(CCc1ccccc1)Nc1ccc2c(c1)C(=O)OC2 | 2.82
Cc1ccc(OCC(=O)NC2CC(C)(C)NC(C)(C)C2)cc1C | -1.24
CCOC(=O)c1c(NC(=O)CC2Nc3ccccc3NC2=O)sc(C)c1C (centres unmarked) | 10.6
Cc1ccc(CC(=O)Nc2nncs2)cc1 | 14.5
COCCNS(=O)(=O)c1cccn1-c1ncc(C(F)(F)F)cc1Cl | 3.15
O=C(Oc1cccc(C(=S)N2CCOCC2)c1)c1ccccc1 | 17.2
Nc1cc(C(=O)c2ccccc2)ccc1[N+](=O)[O-] | -2.2
O=C(Nc1ccc(F)cc1F)N1CCN(CCc2ccccc2)CC1 | -15.6
CCOC(=O)c1ccc(CNC(=O)Cn2nnc(-c3ccccc3F)n2)o1 | -1.55
NC(=O)c1cc2cc([N+](=O)[O-])ccc2oc1=O | 19.6
CN1CCN(c2nc(Nc3ccccc3)nc(N)c2[N+](=O)[O-])CC1 | -40.6
Cc1ccc(CSc2ncnc3c2cnn3Cc2ccccc2)cc1 | -4.44
Cc1ccc(S(=O)(=O)NCCc2ccncc2)cc1C | 11.7
O=C(NCc1cccs1)[C@@H]1CSC2c3ccccc3C(=O)N21 (some centres unmarked) | 8.92

SMILES | hERG current change (%, negative = inhibition) at 10uM [%]
COc1ccc(C(=O)NCc2nnc(SCC(=O)N3CCOCC3)o2)cc1OC | 13.7
CC(NC(=O)C(C)N1CCN(Cc2ccccc2)CC1)c1ccccc1 (centres unmarked) | 8.63
Cc1c(Cl)cccc1NC(=S)N(Cc1cccnc1)Cc1ccccc1Cl | 9.15
O=C(Cn1cc(C(=O)C2CC2)c2ccccc21)NCC1CCCO1 (centres unmarked) | -1.95
CCNS(=O)(=O)c1ccc2c(c1)NCC2 | 32
COC(C[C@H]1O[C@@H]1[C@H](O)[C@H](C)OCc1ccccc1)OC | 8.15
Cc1ccccc1C(=O)NCCCCc1ccccc1 | -0.639
Clc1ccc2[nH]c3c(c2c1)CNCC3 | 5.91
CC(=NC(C)C)C1=C(O)C(C)OC1=O (centres unmarked) | 5.81
CCc1cccc(CC)c1NC(=S)NCc1nc2ccccc2[nH]1 | 3.09
COc1ccc(CCC(=O)Nc2ccc3c(c2)OCO3)cc1OC | 9.66
Cc1ccn(CCC(=O)NC2CCCc3c2cnn3-c2cccc(C)c2C)n1 (centres unmarked) | 11.9
O=C(CSc1cccc2cccnc12)NCc1ccco1 | -1.16
C/C(=N/NC(=O)CCCOc1ccc(Cl)cc1Cl)c1ccc(C)o1 | 3.44
O=C(CCNS(=O)(=O)c1ccc(Br)cc1)Nc1cccc(F)c1 | 3.19
COc1cc(C(=O)N(Cc2cc3ccccc3[nH]c2=O)CC2CCCO2)cc(OC)c1OC (centres unmarked) | -0.737
CC(=O)N1CCN(c2ccc(NC(=O)c3ccc(Cl)cc3)cc2)CC1 | -7.91
O=S(=O)(O)c1cnccc1Nc1cccc(C(F)(F)F)c1 | 5.95
C/C(=N\N1CCN(C2c3ccccc3-c3ccccc32)CC1)c1ccncc1 | 9
O=C(O)CN1C(=O)C(=O)N(Cc2ccc(C(F)(F)F)cc2)C1=O | 23.3
COc1ccccc1NC(=S)NC(=O)Cc1ccc(Cl)cc1 | 17.7
CS(=O)(=O)N1CCN(C(=O)c2cc(-c3ccccc3)nc3ccccc23)CC1 | -30.8
